Measured values: the RNAGym collection of RNA variant scans (doi:10.1093/nar/gkz1192)
Read counts are not given, so values of variants with three or more changes are uncertain.

B1: CPEB3 Ribozyme (parent)
chain: UAACAGGGGGCCACAGCAGAAGCGUUCACGUCGCAGCCCCUGUCAGAUUCUGGUGAAUCUGCGAAUUCUGCUGUAUAUCUC

Variants of: B1
Assay: self-cleavage, relative activity (ratio to wild type); higher = more cleavage; in vitro, sequencing
How it was run: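 After error-prone PCR and barcoding, CPEB3 ribozyme mutant libraries were transcribed with T7 RNA polymerase at 37°C for 5 hours, then given 15 min with DNase I before an EDTA stop, and they cleaved during both steps. Reverse transcription with template switching preceded Illumina sequencing. Relative activity divides a variant's cleaved/total read fraction by the unmutated ribozyme's. At least 5 reads were required per variant, and three batches were averaged.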

| Variant | self-cleavage |
| --- | --- |
| A15U A20U U31C A35G U67A U76C | 1.26 |
| A15U A20U U41A | 0.12 |
| A15U A20U U43G | 0.16 |
| A15U A20U U49C C81A | 0.1 |
| A15U A20U U54C | 0.17 |
| A15U A20U U67A U74C | 1.16 |
| A15U A21G A28G | 0.11 |
| A15U A21G A56G U60C C71U | 0.07 |
| A15U A21G A56G U67C C71U U72C U78A | 0.12 |
| A15U A21G C37U U54G A57G | 0.05 |
| A15U A21G G30A C59U U72C | 0.07 |
| A15U A21G G33A U66C U69C U72C | 0.06 |
| A15U A21G U25C A47G G63U | 0.06 |
| A15U A21G U25C U51A U54C | 0.31 |
| A15U A21G U26A U72A | 0.25 |
| A15U A21G U26C A35G C62U A64U U67C | 0.08 |
| A15U A21G U26G A28G U31G | 0.07 |
| A15U A21G U31A | 0.35 |
| A15U A21G U31A U66C | 0.53 |
| A15U A21G U41C C50G A57C U60C A77U | 0.11 |
| A15U A21G U41C U51A U54C A56G U72A | 0.15 |

| Variant | self-cleavage |
| --- | --- |
| A15U A21G U41C U51G U76A U80C | 0.34 |
| A15U A21G U54C | 0.34 |
| A15U A21G U54C A56G | 0.2 |
| A15U A21G U54C A57G | 0.15 |
| A15U A21G U58A U69A U72G | 0.07 |
| A15U A21G U69A | 0.16 |
| A15U A21G U69C U74C | 0.26 |
| A15U A21G U74C | 0.32 |
| A15U A21U U26C | 0.12 |
| A15U A21U U26C C38A U41C | 0.3 |
| A15U A21U U31A U49C U78C | 0.15 |
| A15U A21U U31C G36A U41A A45G | 0.05 |
| A15U A21U U49C A64G U69A | 0.07 |
| A15U A28C A64G | 0.18 |
| A15U A28C U31C A57G A64G | 0.09 |
| A15U A28C U31C A64G | 0.22 |
| A15U A28G A35C A45C A47G | 0.08 |
| A15U A28G A35U U48C U51C | 0.09 |
| A15U A28G A45U U66C U67C U80A | 0.28 |
| A15U A28G C40U | 0.2 |
| A15U A28G C59A U74C A75C | 0.09 |

| Variant | self-cleavage |
| --- | --- |
| A15U A28G U31C G42A A47G A56G | 0.13 |
| A15U A28G U54C G70A U76C U80C | 0.05 |
| A15U A28G U69C | 0.14 |
| A15U A28G U76C U78C | 0.15 |
| A15U A28G U80C | 0.26 |
| A15U A28U A35U U80C | 0.49 |
| A15U A28U A47U | 0.21 |
| A15U A28U A64G U67G | 0.08 |
| A15U A28U A65G | 0.16 |
| A15U A28U U41A A45U U66A C68U | 0.1 |
| A15U A28U U69G | 0.11 |
| A15U A35C A57U U72C | 0.3 |
| A15U A35C U41A | 0.28 |
| A15U A35C U41C U78C | 0.57 |
| A15U A35G A45G U51A C68G U69C | 0.91 |
| A15U A35G A56U A57U U66C | 0.53 |
| A15U A35G U41A A56G C62U U78C | 0.05 |
| A15U A35G U41C | 1.26 |
| A15U A35G U54C | 1.27 |
| A15U A35G U54C G63A A65C | 0.65 |
| A15U A35U A45G A64U | 0.26 |

| Variant | self-cleavage |
| --- | --- |
| A15U A35U A47G U58C U78C | 0.44 |
| A15U A35U A57G U74A | 0.7 |
| A15U A35U U41A | 0.21 |
| A15U A35U U41C A45U U54A U74A | 0.17 |
| A15U A35U U54A U78C | 0.49 |
| A15U A35U U54C | 0.25 |
| A15U A35U U76C U78C | 0.57 |
| A15U A45C A56G | 0.53 |
| A15U A45C G53C A75U A77U | 0.15 |
| A15U A45C U49C A64G | 0.02 |
| A15U A45G A47G | 0.29 |
| A15U A45G A57G U58C | 0.16 |
| A15U A45G A65G U69A | 0.18 |
| A15U A45G C71U U80C | 0.11 |
| A15U A45G G53A C59A A75U | 0.13 |
| A15U A45G U51C G73A | 0.84 |
| A15U A45G U60C | 0.45 |
| A15U A45G U69C | 0.14 |
| A15U A45G U78A | 0.41 |
| A15U A45U A56G | 0.1 |
| A15U A45U G63U C71A | 0.08 |
